Laboratory results as given in PubChem BioAssay AID624296 (National Center for Advancing Translational Sciences (NCATS), 2012).
About 9,900 (2.8%) of roughly 350,000 compounds were called active. Inconclusive means that the source gave no clear call. Such entries were picked first, then a sample of the others. Calls come from the whole dose curve; as a rule, active = well fitted activation curve with a large enough effect; inconclusive = small, poorly fitted or top-dose-only effect; inactive = no such curve, though single readings can be large or run the other way. Potencies of inconclusive entries are left out as doubtful fits.
Potency is the fitted concentration of half-maximal effect; tags give direction and shape of the fitted curve.

Assay: A quantitative high throughput screen for small molecules that induce DNA re-replication in MCF 10a normal breast cells. Note: nearly all actives have a fitted effect of over 50% in size.
Conditions: MCF 10A DNA re-replication, Hoechst nuclear intensity, 48 h; series mostly up to 46.1 µM
With `O=C(Nc1ccccc1Oc1ccccc1)C1=COCCO1` the Potency was “inactive”. For `CCc1nc2ccc(C(=O)N3CCN(c4cc(C)ccc4C)CC3)cc2nc1CC`, the Potency was inconclusive [activator, single point]. For `CC(=O)NCCNC(=O)c1ccc(Sc2ccccc2)c([N+](=O)[O-])c1`, the Potency was inconclusive [activator, partial curve, poor fit]. For `O=C(Cc1coc2ccc3ccccc3c12)Nc1nnc(C2CC2)s1`, the Potency was inconclusive [activator, partial curve, poor fit]. For `CC(C)=CCc1c(O)ccc(C2COc3c(CC=C(C)C)c(O)cc(O)c3C2=O)c1O` (stereo not drawn), the Potency was inconclusive [activator, single point]. In the case of `CCC(c1nnnn1Cc1ccc(OC)cc1)N1CCN(c2ccc(OC)cc2)CC1` (stereo not drawn), the Potency is reported as inconclusive [activator, single point]. With `NS(=O)(=O)c1ccc(N=Nc2c(-c3ccccc3)[nH]n(-c3nc(-c4ccccc4)cs3)c2=O)cc1` the Potency was inconclusive [activator, full curve, poor fit]. In the case of `O=S(=O)(/N=C(/Nc1cccc2ccccc12)c1ccccc1)c1ccccc1`, the Potency is reported as inconclusive [activator, single point]. In the case of `CC(C)CN(C(=O)CC1CCCC1)c1c(N)n(Cc2ccccc2)c(=O)[nH]c1=O`, the Potency is reported as “inactive”. In the case of `NC(=O)C1CCN(c2nc(-c3ccccc3)nc3c2oc2ccccc23)CC1`, the Potency is reported as “inactive”. For `COc1cc(CN(C2CC2)S(=O)(=O)c2ccccc2Br)cc(OC)c1`, the Potency was inconclusive [activator, full curve, poor fit]. With `Cc1ccc(C)c(OCC(=O)Nc2ccc(S(=O)(=O)N3CCN(C)CC3)cc2)c1` the Potency was inconclusive [activator, partial curve, poor fit]. For `CC1CCN(C(=O)Cn2nnc(-c3ccc(C(C)C)cc3)n2)CC1`, the Potency was “inactive”. With `O=C(NCc1ccc(Cl)cc1)c1ccc(CS(=O)Cc2cccc(Cl)c2)o1` (stereo not drawn) the Potency was “inactive”. In the case of `O=C(CSc1nc2[nH]ncc2c(=O)n1-c1ccccc1Cl)N1CCCC1`, the Potency is reported as inconclusive [activator, partial curve, poor fit]. With `CCOC(=O)c1c(CN2CCN(C)CC2)n(C)c2cc(Br)c(OC)cc12` the Potency was inconclusive [activator, single point]. For `COc1ccc2nc(NC(=O)C3CCN(S(=O)(=O)c4cccc5nsnc45)CC3)sc2c1`, the Potency was inconclusive [activator, full curve, poor fit]. In the case of `O=C1c2cc(Cl)ccc2-c2c(O)cc(Cl)cc21`, the Potency is reported as active: 13 µM. In the case of `CCCCn1c(N)c(N(CC(C)C)C(=O)c2ccc(-c3ccc(Cl)cc3)o2)c(=O)[nH]c1=O`, the Potency is reported as active: 23.1 µM. With `COc1ccc(NC(=S)NCCSc2ccc(C)cc2)c(OC)c1` the Potency was inconclusive [activator, partial curve, poor fit]. For `CC(C)CC(=O)Nc1nnc(-c2ccco2)s1`, the Potency was inconclusive [activator, single point]. In the case of `CCCCc1ccc(-c2csc(/C(C#N)=C\c3ccco3)n2)cc1`, the Potency is reported as active: 18.4 µM. With `CCOC(=O)N1CCC(NC(=O)C2CCN(S(=O)(=O)N3CCCC3)CC2)CC1` the Potency was inconclusive [activator, single point]. With `Cc1ccc(CCNC(=O)c2cccc(N3CCCC3=O)c2)cc1` the Potency was “inactive”. For `Cc1cc(S(=O)(=O)Nc2ccc(F)cc2)c(C)s1`, the Potency was inconclusive [activator, partial curve, poor fit]. With `COc1ccc(S(=O)(=O)Cc2ccc(C(=O)N3CCN(c4cccc(C)c4C)CC3)o2)cc1` the Potency was inconclusive [activator, full curve]. In the case of `CCC(C#CCN1CCCCC1)(CC)OCCC#N`, the Potency is reported as “inactive”. In the case of `C=CCc1cccc2cc(C(=O)Nc3ccccc3C(=O)O)c(=O)oc12`, the Potency is reported as inconclusive [activator, single point]. In the case of `COc1ccccc1NC(=O)CSc1ccc(-c2ccccn2)nn1`, the Potency is reported as inconclusive [activator, single point]. In the case of `CCN(CC)C(=O)[C@H]1C[C@H](CC(=O)NCc2ccco2)C(=O)N2CCc3c([nH]c4cc(-c5ccco5)ccc34)[C@]12C`, the Potency is reported as inconclusive [activator, single point]. In the case of `CCN(CC)CC(=O)N1c2ccccc2Sc2ccccc21`, the Potency is reported as “inactive”. For `CCOc1ccc(CCNC(=O)COC(=O)c2oc3ccccc3c2COC)cc1OCC`, the Potency was “inactive”. With `Cc1onc(-c2c(Cl)cccc2Cl)c1C(=O)c1ccccc1` the Potency was inconclusive [activator, full curve]. With `Cc1cc(Oc2ccc(Cl)cc2)nc(SCC(=O)c2ccccc2)n1` the Potency was inconclusive [activator, partial curve]. In the case of `COCCNC(=O)Nc1ccc2nc(-c3cccs3)c(-c3cccs3)nc2c1`, the Potency is reported as active: 23.1 µM. For `COc1ccc(N(C)C(=O)c2ccc3nc(-c4ccccc4)c(-c4ccccc4)nc3c2)cc1`, the Potency was inconclusive [activator, single point]. With `COC(=O)Cn1cnc2scc(-c3ccc(C)cc3)c2c1=O` the Potency was inconclusive [activator, single point]. In the case of `CCN(CC)S(=O)(=O)c1cc(NC(=O)C2CCN(c3ncnc4sc(C)c(C)c34)CC2)ccc1Cl`, the Potency is reported as inconclusive [activator, full curve]. In the case of `O=C(O)c1cc(S(=O)(=O)N2CCOCC2)c[nH]1`, the Potency is reported as “inactive”. For `Cc1ccc(NC(=O)CN(C)CCOc2ccccc2)c([N+](=O)[O-])c1`, the Potency was inconclusive [activator, partial curve, poor fit]. In the case of `Cc1csc(SCCn2c(Br)nc3c2c(=O)[nH]c(=O)n3C)n1`, the Potency is reported as inconclusive [activator, partial curve, poor fit]. In the case of `Cc1ccc(Oc2ncnc(N)c2[N+](=O)[O-])cc1C`, the Potency is reported as inconclusive [activator, single point]. With `COc1ccc(-n2c(SCC(=O)NCc3ccco3)nc3c([nH]c4ccccc43)c2=O)cc1` the Potency was inconclusive [activator, single point].
